± gives the standard deviation of the averaged measurements. The list shows a part of the results.
test system: PfAP2-G AP2 domain (GST-tagged); experiment: gcPBM binding intensity (ln(normalized median fluorescence intensity)); higher = stronger DNA binding
Summary of the method: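 The highest Masliner-normalised natural-log median intensity across replicate spots of either probe orientation is reported as binding intensity. GST-tagged P. falciparum DNA-binding domains expressed in E. coli were applied for 1 h to an Agilent 4 × 180k array of primer-extended double-stranded 36-bp intergenic genomic probes plus negative controls, and bound protein was detected with Alexa488 anti-GST antibody and scanned at 488 nm.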

“TTTTTTTTTTTTTGTGTGCACCTTATTTTTTTGTAT [GTGCAC_site9617]” and “GTATATATTTTGTATTCATTTGTCACATATAATAGA [CACACA_negctrl_site506]” are within error of each other in “gcPBM binding intensity (ln)” value: 10.6 ± 0.81 for the first, 10.1 ± 0.12 for the second.

“ATAGTAATGCATAAATATATATTATATATATATATA [XGTACX_negctrl_site576]” and “CTATTGTTAAATATAATACACACGTTTTTAAAAATA [CACACA_site2183]” are within error of each other in “gcPBM binding intensity (ln)” value: 9.94 ± 0.38 for the first, 10.03 ± 0.071 for the second.

Compared with “ATTATATATACATAATGTACATATATATATTACCTT [XGTACX_site7624]”, “TATAAAATGACTATATATAATATTAAAAAAAAAAAA [TGCATGCA_negctrl_site387]” is lower in “gcPBM binding intensity (ln)” value: 10.8 ± 0.54 for the first, 9.46 ± 0.18 for the second.

Compared with “AAATTAGGAAATTGCACACAAAAAAAAACATATTAT [CACACA_site4074]”, “TTTTTTTATTTTTTTATAAATGTATTTCTATTATTT [CACACA_negctrl_site1562]” is lower in “gcPBM binding intensity (ln)” value: 10.09 ± 0.099 for the first, 9.63 ± 0.028 for the second.

“AAAAAAAAAAAAAATTCACACACATATAAAAAATTA [CACACA_site8140]” and “TAAATTAAGAATTTTACACACATTAAATAAAAAAAA [CACACA_site3638]” are within error of each other in “gcPBM binding intensity (ln)” value: 9.76 ± 0.17 for the first, 9.805 ± 0.078 for the second.

First: AAAAATATATTATATGTACACACAAAATTAAGGGAT [CACACA_site8384]
Second: TGAATATTTATACATGCACACTAAAATAAAGAATCT [CACACA_site5351]
The “gcPBM binding intensity (ln)” value of the first is higher: 11.5 ± 0.83 for the first, 10.1 ± 0.057 for the second.

“TTTGAACGAAAATACTCACACATATTTATAAACATT [CACACA_site5182]” and “GTATTTTTAAATGACACACACATATATATATATATA [CACACA_site1662]” are within error of each other in “gcPBM binding intensity (ln)” value: 10.1 ± 0.17 for the first, 10.2 ± 0.29 for the second.

Compared with “ATTTTTCATATATATATATTAATATATATATATTAA [CACACA_negctrl_site1681]”, “AAAATTTCTTTTTTTTGTACATATATAATAATATAT [XGTACX_site7107]” is higher in “gcPBM binding intensity (ln)” value: 9.74 ± 0.14 for the first, 10.9 ± 0.62 for the second.

Going from “AAAATATAGTTATCAATATATAATATTTTTTTTTTA [CACACA_negctrl_site459]” to “TTATTAATATTGCATGCACACTATATAATAATTGAA [CACACA_site8258]”, the “gcPBM binding intensity (ln)” value rises from 9.42 ± 0.17 to 9.91 ± 0.11.

“TCTTTCTCTCTTCAAAGTACATATAATATATACTTC [XGTACX_site7982]” and “CAGTTAATGTTGGTACTTTATATAAAAATGATATGA [CACACA_negctrl_site1600]” are within error of each other in “gcPBM binding intensity (ln)” value: 11 ± 0.74 for the first, 10.9 ± 0.54 for the second.

“ATAACAACATTTGATAAACACACAGAAGTATAAATA [CACACA_site8739]” and “TATAAATAGGCATATACACACTTTTAATATTCATAA [CACACA_site6123]” are within error of each other in “gcPBM binding intensity (ln)” value: 10.1 ± 0.11 for the first, 9.96 ± 0.085 for the second.

“AAAACATACCTATATACACACATATAAATATAAATA [CACACA_site6956]” and “TATATATTAATATACACACACACATATATATATATA [CACACA_site1608]” are within error of each other in “gcPBM binding intensity (ln)” value: 10.1 ± 0.3 for the first, 10.2 ± 0.21 for the second.

Going from “AATAAATTATTATGTACACACATAATAGTATATATA [CACACA_site1820]” to “TTTGATATAGAAAGAGCATGCAAGTTAGATAAAATA [TGCATGCA_site470]”, the “gcPBM binding intensity (ln)” value falls from 11.4 ± 0.85 to 10.06 ± 0.057.

TTTTGTTATTTTGAAGTGCACTTTCCACTTAATATA and “CAATCATGGTTTTACACACACATGCATGTGAAAATT [CACACA_site4870]” are within error of each other in “gcPBM binding intensity (ln)” value: 10.4 ± 0.3 for the first, 10.2 ± 0.24 for the second.

“TTTCAAACTGTTCTCACACACGAAATTAGAAATGAA [CACACA_site4509]” and “AAAACAAAATAGGGAACACACACATGTCAATATATA [CACACA_site8834]” are within error of each other in “gcPBM binding intensity (ln)” value: 10.1 ± 0.25 for the first, 10.3 ± 0.18 for the second.

“TTTTTTTTTTTTTGGTTCACACTGAAAAGAGAGATA [GTGCAC_negctrl_site439]” and “TATATACATAGACACCCACACACAAAAAAAAAAAAA [CACACA_site8186]” are within error of each other in “gcPBM binding intensity (ln)” value: 10.2 ± 0.54 for the first, 10.3 ± 0.61 for the second.

“TCGAATTTGGAAAGAAGTACATGAAGCCAACATATG [XGTACX_site5222]” and “AATAAATAAAAATTATGTACATATATAAAAAATACA [XGTACX_site8581]” are within error of each other in “gcPBM binding intensity (ln)” value: 11.4 ± 0.79 for the first, 11.3 ± 0.74 for the second.

“TCATGTTTTACAAAAACACACAAATGAATATAAACA [CACACA_site4775]” and “AAAAAAAAAAGACACACACACACACTAATACATACA [CACACA_site6473]” are within error of each other in “gcPBM binding intensity (ln)” value: 10.1 ± 0.2 for the first, 10.15 ± 0.085 for the second.

“ACACATATGCATATATGTACATAATATATTAAACTT [XGTACX_site5975]” and “TAAAAAATAAATATATGTACGCAATAAATGTGTTAA [XGTACX_site4043]” are within error of each other in “gcPBM binding intensity (ln)” value: 11.2 ± 0.46 for the first, 11.6 ± 1.1 for the second.

First: AAATAAAATATCAATTAAAACAGAATTGAATTTTTA [CACACA_negctrl_site181]
Second: ATATGTTCTACAAAAAAGATGTCGATTTATTTTCTT [CACACA_negctrl_site1179]
The “gcPBM binding intensity (ln)” value of the first is lower: 9.5 ± 0.33 for the first, 9.98 ± 0.014 for the second.

“AAATATATATGTATATGTACTTATTTATTTAAAAGG [XGTACX_site4093]” and “TTTATTATATATAAAAGTACACATTGTAAGGAAACA [XGTACX_site8560]” are within error of each other in “gcPBM binding intensity (ln)” value: 11.4 ± 0.94 for the first, 11.5 ± 0.97 for the second.

“AAAAGTGATGAGACAAGTACTAACATATTATTATTA [XGTACX_site1533]” and “TTTTCTGTATAAACTTGTACATATATTTCCTTGTTT [XGTACX_site5745]” are within error of each other in “gcPBM binding intensity (ln)” value: 10.8 ± 0.42 for the first, 11 ± 0.66 for the second.

ATACCTATTTGATGAGTGCATTATCCAATATATGTA and “ATGTTTTACAAAAACACACAAATGAATATAAACATA [CACACA_site6667]” are within error of each other in “gcPBM binding intensity (ln)” value: 10.2 ± 0.11 for the first, 10.05 ± 0.092 for the second.

First: AAAAAAAAAAAAAAATGTACAAATAGTAGTTACAGA [XGTACX_site2531]
Second: AACATGTTAAAATAAACACACAGCTAAGGTTTTTTT [CACACA_site157]
The “gcPBM binding intensity (ln)” value of the first is higher: 10.9 ± 0.49 for the first, 9.62 ± 0.25 for the second.

Compared with “TATTTGTAAATCGATACACACATATATATTAATATA [CACACA_site196]”, “AAATGTAGATATTATCGTACACATATATTTATATAT [XGTACX_site6326]” is higher in “gcPBM binding intensity (ln)” value: 9.94 ± 0.085 for the first, 11.1 ± 0.74 for the second.

“ATAATATATGTATATCCACACACATATATATATATA [CACACA_site8471]” and “ATTTAAGATTTAATCACACACATATATATTATATAC [CACACA_site2907]” are within error of each other in “gcPBM binding intensity (ln)” value: 10.2 ± 0.34 for the first, 9.855 ± 0.064 for the second.

First: GCAAATGTGAAAACGTGTACACATTTTATTTAATTT [XGTACX_site8000]
Second: TTGTTTATTTTTTATTACTATAAAGATGTTATATAT [CACACA_negctrl_site1506]
The “gcPBM binding intensity (ln)” value of the first is higher: 11.7 ± 1 for the first, 10 ± 0.2 for the second.

“TATATAAATATATATGTACACACATATACATGTTGA [CACACA_site9022]” and ATAATATCTTTATGTGTGCACATATATATATATATA are within error of each other in “gcPBM binding intensity (ln)” value: 11.3 ± 0.92 for the first, 10.4 ± 0.42 for the second.

Reference: the supplement of paper PMC11417369
